The values that follow come from article PMC12040169 (PLOS Biology, 2025).

The other results are listed elsewhere or left out.

The assay has as its system T1, C. trachomatis L2/434/Bu expressing GFP (CTL2-GFP).
T1 construct: L2/434/Bu GFP intracellular growth in HeLa cells
Details: species or system HeLa; C. trachomatis total inclusion area by high-content imaging, normalised to DMSO. The settings on record: total inclusion area; 28.5 h, 10 µM; inhibitor. Put shortly:
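Following bulk GFP and resorufin fluorescence reads, infected cells were fixed, Hoechst-stained and imaged on a high-content platform. Inclusion total area and number per well served as growth proxies; nuclei counts indicated host viability. MICs were derived as for the fluorescence assay.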
Consider `O=C(N/N=C/c1ccc(OC(=O)c2ccc([N+](=O)[O-])cc2)cc1)c1cccnc1` [CBK262146], for which the “% of control remaining” value is given as 105.112.

Turning to `Cc1ccc(N2C(=O)CC(Sc3ncccc3C(=O)O)C2=O)c(C)c1` (stereo not shown) [CBK269377], the “% of control remaining” value was determined as 62.6199.

Turning to `COc1ccc(S(=O)(=O)N2CCC(C(=O)NC3(C(=O)O)CCCCC3)CC2)cc1OC` [CBK295646], the “% of control remaining” value is 104.535.

Regarding `CCOc1ccnc(N2CCN(C(=O)CCc3ccsc3)CC2)n1` [CBK304942], the “% of control remaining” value was 94.6218.

Consider `CCC(=O)N1CCCc2cc(C(O)CN3CCN(c4cccc(OC)c4)CC3)ccc21` (stereo not shown) [CBK286476], for which the “% of control remaining” value came out at 75.0974.

`O=C(c1c[nH]c(=O)n(-c2ccc(F)cc2)c1=O)N1CCc2ccccc21` [CBK287554]: the “% of control remaining” value was found to be 104.811.

Take `Cc1c(NC(=O)COc2ccc([N+](=O)[O-])cc2)cccc1-c1nc2ncccc2o1` [CBK263912]: the “% of control remaining” value is 91.7627.

Turning to `CCC1CC(C(F)(F)F)n2ncc(C(=O)O)c2N1` (stereo not shown) [CBK286893], the “% of control remaining” value stood at 98.9971.

As for `CCONC(=O)c1cc(-c2ccccc2C)nc2c1cnn2C(C)C` [CBK304048], the “% of control remaining” value is 33.0388.

Take `O=C(O)C1C2CCC(C2)C1C(=O)NCCCCc1ccccc1` (stereo not shown) [CBK286967]: the “% of control remaining” value is 131.557.

Turning to `Cc1ccc(OCC(O)CNC(=O)c2ccccc2C(=O)O)cc1` (stereo not shown) [CBK264778], the “% of control remaining” value is reported as 105.433.

As to `CCN1CCN(C(=O)c2c[nH]c3ccccc23)CC1` [CBK200245], the “% of control remaining” value is listed as 95.298.

`O=C(c1ccccc1F)N1CCN(C(=O)[C@@H]2C[C@@H]3C=C[C@H]2C3)CC1` [CBK282011]: the “% of control remaining” value turned out to be 96.1032.

Turning to `CN(C)/C=N/c1nc2c(nc(Br)n2C2CC(O)C(CO)O2)c(=O)[nH]1` (stereo not shown) [CBK201319], the “% of control remaining” value is on record as 77.4693.

For `CCn1c(C)nc2cc(NC(=O)Cn3cc(C(=O)NC4CCCCC4)ccc3=O)ccc21` [CBK286095], the “% of control remaining” value is 103.221.

Consider `CC(=O)N1CCc2cc(NC(=O)Cn3ccnc3C(C)C)ccc21` [CBK281471], for which the “% of control remaining” value is on record as 108.088.

With `CC(=O)Nc1nnc(SCC(=O)NCc2ccc3c(c2)OCO3)s1` [CBK287626], the “% of control remaining” value is 93.6283.

For the molecule `O=C(Nc1cccc(-c2nnc3n2CCCCC3)c1)[C@@H]1CCCN1C(=O)c1cccs1` [CBK297090], the “% of control remaining” value turned out to be 98.7085.

As to `O=C(CC1Nc2ccccc2NC1=O)Nc1cccc(C(F)(F)F)c1` (stereo not shown) [CBK262510], the “% of control remaining” value was found to be 107.185.

On to `CC1(C)CCCN(C(=O)CCn2ccc3ccncc32)C1` [CBK285173], for which the “% of control remaining” value is listed as 91.8393.

For the molecule `O=C(NCCN1CCOCC1)c1ccc(NS(=O)(=O)c2ccccc2)cc1` [CBK270118], the “% of control remaining” value worked out at 107.172.

Consider `Cc1noc(/C=C\c2cc(C)n(-c3ccc(C(=O)O)cc3)c2C)c1[N+](=O)[O-]` [CBK268862], for which the “% of control remaining” value is listed as 96.1346.

For the molecule `O=C(CCc1ccc(O)c(O)c1)NNC(=S)Nc1ccc(F)cc1F` [CBK267041], the “% of control remaining” value was determined as 88.6803.

Take `Cc1cc(C(F)(F)F)nc2c(OCCOc3nccnc3N3CCNCC3)cnn12` [CBK024195C]: the “% of control remaining” value is reported as 102.79.

As for `O=C(O)C1CC=CCC1C(=O)NCc1ccncc1` (stereo not shown) [CBK265481], the “% of control remaining” value turned out to be 85.1315.

For `COc1cc(-c2nccnc2NCc2ccc(OC(F)(F)F)cc2)cc(OC)c1OC` [CBK038063], the “% of control remaining” value was 101.214.

Consider `O=C(c1ccc(-c2ccc(F)cc2)o1)N1C[C@H]2CC[C@](O)(c3ccc(F)cc3)[C@H]2C1` [CBK286415], for which the “% of control remaining” value was 6.511.

Take `c1ccc(-c2nc3sc4c(ncn5cnnc45)c3c3c2CCC3)cc1` [CBK269566]: the “% of control remaining” value was 86.1494.

For the molecule `O=C(O)c1cc(S(=O)(=O)N2CCOCC2)ccc1F` [CBK268398], the “% of control remaining” value came to 76.872.

Consider `CC(C)S(=O)(=O)N1C2CCC(C2)[C@@H]1COc1ccc(F)cc1` (stereo partly shown) [CBK285292], for which the “% of control remaining” value stood at 62.4272.

Consider `COc1ccc(OC)c(C2=NO[C@@](CC(=O)O)(C(=O)NC3CCCCC3)C2)c1` [CBK286672], for which the “% of control remaining” value is recorded as 64.0995.

Regarding `O=C(O)c1cc(NC(=O)c2ccc3c(c2)C(=O)N(Cc2cccnc2)C3=O)cc(C(=O)O)c1` [CBK266761], the “% of control remaining” value is on record as 98.1163.

For `CC(C(=O)Nc1cccc(N2CCNCC2)c1)c1ccccc1` (stereo not shown) [CBK004770T], the “% of control remaining” value is reported as 95.7347.

In the case of `O=C(NCC(c1ccccc1)c1ccccc1)N1CCN(Cc2ccccc2)CC1` [CBK155651], the “% of control remaining” value was 106.134.

With `CS(=O)(=O)c1ccc(-c2nccnc2NCc2cccnc2)cc1` [CBK036977], the “% of control remaining” value was found to be 81.4841.

Consider `N#CCCN(C(=O)Nc1ccccc1Cl)C1CCCCC1` [CBK156366], for which the “% of control remaining” value came out at 96.2251.

Consider `COc1ccc2cc(C(=O)NCCn3ccnc3C)n(C)c2c1` [CBK282544], for which the “% of control remaining” value came to 115.007.

Regarding `COc1ccc(Br)cc1S(=O)(=O)Nc1c(C(=O)Nc2ccc(F)cc2)[nH]c2ccccc12` [CBK050095], the “% of control remaining” value is reported as 84.3788.

As for `CCN1CCN(Cc2c(O)ccc3c(=O)c(Oc4ccccc4Cl)c(C(F)(F)F)oc23)CC1` [CBK266627], the “% of control remaining” value is recorded as 112.405.

As for `CC1=NNC(=O)C1Cc1c(Cl)cccc1Cl` (stereo not shown) [CBK067754], the “% of control remaining” value stood at 101.436.

In the case of `COCCNc1nc(-c2ccc(N3CCOCC3)cc2)ccc1C(=O)N1CCN(C)CC1` [CBK105943], the “% of control remaining” value came out at 104.654.

For the molecule `Cc1cc(-c2cn3cc(C(=O)NCCCCO)nc3c(=O)n2C)c(C)o1` [CBK307037], the “% of control remaining” value turned out to be 21.8631.

Turning to `COc1ccc(C(=O)N2Cc3ccccc3C2)c(OC)n1` [CBK200317], the “% of control remaining” value was determined as 94.8939.

Consider `Cc1cc2ncc3c(n2n1)CC1CCC3N1C(=O)CCn1cccc1` (stereo not shown) [CBK283157], for which the “% of control remaining” value came to 98.4161.

On to `CCSc1nc(=O)c2c(n1C)NC(=O)CC2c1ccc(OC)cc1` (stereo not shown) [CBK307542], for which the “% of control remaining” value was found to be 98.8321.

On to `O=C(O)CC(NCc1ccccc1)C(=O)Nc1ccccc1Br` (stereo not shown) [CBK267118], for which the “% of control remaining” value came out at 112.243.

Consider `CCOC(=O)C1CCCN(Cc2c[nH]nc2-c2ccc(OC)cc2F)C1` (stereo not shown) [CBK307304], for which the “% of control remaining” value was found to be 66.7989.

Consider `O=C(NC1CCCc2c1cnn2-c1ccc(F)cc1)C1CC1` (stereo not shown) [CBK283928], for which the “% of control remaining” value is recorded as 109.592.

Take `CSCCCNC(=O)c1ccc(-c2ccoc2)nc1` [CBK156262]: the “% of control remaining” value came out at 98.9785.

With `COc1ccccc1CN[C@@H]1CCC[C@H]1Cc1cc(C)no1` [CBK283005], the “% of control remaining” value came to 93.7357.

Turning to `NCCNc1cccc2c1ccn2S(=O)(=O)c1ccccc1` [CBK028470C], the “% of control remaining” value was found to be 68.392.

In the case of `O=C(N[C@H]1CO[C@H]2[C@@H]1OC[C@@H]2Nc1nccc(-c2cccs2)n1)c1cccs1` [CBK289518], the “% of control remaining” value is reported as 58.1045.

With `COc1ccc(C2(O)CCN(CC(O)c3ccc4c(c3)CCC4)CC2)cc1` (stereo not shown) [CBK286334], the “% of control remaining” value is given as 89.1738.

As for `C(=C\CSc1nc2ccccc2[nH]1)/CSc1nc2ccccc2[nH]1` [CBK263090], the “% of control remaining” value was determined as 93.0415.

With `Nc1nc(SCC(=O)NCCCO)nc2sc3c(c12)CCC3` [CBK264952], the “% of control remaining” value turned out to be 99.5832.

For `CCN(CC)c1ccc(NC(=O)c2cccc(OC)c2OC)c(C)c1` [CBK097801], the “% of control remaining” value is on record as 108.622.

Consider `Cc1nc(CN2CCCN(C(=O)c3cccc(C#N)c3)CC2)cs1` [CBK305363], for which the “% of control remaining” value is on record as 71.3268.

Turning to `COc1cc(OC)nc(NC(=O)CN2CCN(c3ccc(F)cc3)CC2)n1` [CBK267259], the “% of control remaining” value is listed as 129.958.

For the molecule `CC(C)(C)OC(=O)NCc1ccc(-c2cc(NC3CCCCC3)ncn2)cc1` [CBK090898], the “% of control remaining” value was 109.473.

In the case of `CC(C)Nc1nc2ccccc2nc1SCCOc1ccccc1` [CBK103668], the “% of control remaining” value worked out at 79.2743.

With `C=CCn1c(C)c(CN2CCc3nc(C)[nH]c(=O)c3C2)c2ccccc21` [CBK282375], the “% of control remaining” value came to 86.3732.

Take `COc1cc(/C=C2/SC(=O)NC2=O)cc(I)c1O` [CBK100075]: the “% of control remaining” value worked out at 83.2764.

For `CCN(CC)c1ccc(NC(=O)c2cc(-c3cccnc3)cnc2NCCN2CCOCC2)cc1` [CBK126566], the “% of control remaining” value was 87.0024.

Take `C[S+]([O-])CCC(NS(=O)(=O)c1ccccc1)C(=O)O` (stereo not shown) [CBK268267]: the “% of control remaining” value is recorded as 91.2075.

For `O=C(O)c1cccc(-n2c(S)nnc2-c2cnccn2)c1` [CBK269252], the “% of control remaining” value amounted to 85.2504.

Consider `COc1ccc(N(CC(=O)N2CCN(Cc3ccc4c(c3)OCO4)CC2)S(C)(=O)=O)cc1Cl` [CBK265258], for which the “% of control remaining” value is reported as 94.255.

Take `O=C(NCCOc1ccc(F)cc1)c1cccs1` [CBK057930]: the “% of control remaining” value is on record as 88.9143.

Turning to `c1ccc2[nH]c(NCCN3CCOCC3)nc2c1` [CBK268791], the “% of control remaining” value came to 96.9323.

On to `Cc1ccc(OCc2ccc(Cl)s2)c(Br)c1` [CBK002840], for which the “% of control remaining” value turned out to be 56.4468.

With `O=C(Nc1cc(N2CCNCC2)ncn1)c1cnc2ccccc2c1` [CBK004209T], the “% of control remaining” value is 95.7385.

For `COc1ccc(Cn2nc(NS(=O)(=O)c3cn(C)cn3)c3ccccc32)cc1` [CBK048143], the “% of control remaining” value is recorded as 82.5189.

With `CCNCc1cc2c(C)nn(-c3ccc(F)cc3)c2[nH]c1=O` [CBK283118], the “% of control remaining” value is reported as 71.5117.

Take `O=C(O)COc1ccc(NC(=O)CSCc2ccc(Cl)cc2Cl)cc1` [CBK131700]: the “% of control remaining” value worked out at 95.4704.

For the molecule `Cc1[nH]c2ccc(C(=O)N(Cc3ccccc3)C3CC3)cc2c1C` [CBK297913], the “% of control remaining” value is given as 80.2622.

Take `COc1ccc2c(=O)c3c(oc2c1)C(=O)N(CCN(C)C)C3c1ccccn1` (stereo not shown) [CBK287781]: the “% of control remaining” value was 89.4127.

For `Cc1cc(C)c2c(c1)-c1c(ssc1=S)C(C)(C)N2C(=O)CSc1nnc[nH]1` [CBK263038], the “% of control remaining” value is 85.7489.

For the molecule `COc1ccc2[nH]c3c(c2c1)CCOC31CCN(C(=O)Nc2ccc(C(C)C)cc2)CC1` [CBK047154], the “% of control remaining” value amounted to 88.0335.

Take `CC(O)CN1CCN(c2nc(-c3ccncc3)nc3c2CCC3)CC1` (stereo not shown) [CBK304971]: the “% of control remaining” value was determined as 34.1287.

Turning to `Cn1c(=N)n(CC(=O)O)c2ccccc21` [CBK262926B], the “% of control remaining” value was determined as 103.507.
